# In patent publication US7635694B2, “Cyclobutenedione-containing compounds as inhibitors of hepatitis C virus NS3 serine protease” (Schering Corporation, priority 2004, dated 2009):
# Biological target: Recombinant heterodimeric HCV NS3/NS4A protease (strain 1a) (Hepatitis C virus genotype 1a, UniProt P27958)
# Test: Spectrophotometric assay for HCV protease inhibitory activity
# Type: biochemical
# Conditions: chromogenic ester substrate, 30° C., pH 6.5, read-out: Ki* Range
# Description: Assay for HCV Protease Inhibitory Activity:
# Spectrophotometric Assay: Spectrophotometric assay for the HCV serine protease can be performed on the inventive compounds by following the procedure described by R. Zhang et al, Analytical Biochemistry, 270 (1999) 268-275, the disclosure of which is incorporated herein by reference. The assay based on the proteolysis of chromogenic ester substrates is suitable for the continuous monitoring of HCV NS3 protease activity. The substrates are derived from the P side of the NS5A-NS5B junction sequence (Ac-DTEDWX(Nva), where X=A or P) whose C-terminal carboxyl groups are esterified with one of four different chromophoric alcohols (3- or 4-nitrophenol, 7-hydroxy-4-methyl-coumarin, or 4-phenylazophenol). Illustrated below are the synthesis, characterization and application of these novel spectrophotometric ester substrates to high throughput screening and detailed kinetic evaluation of HCV NS3 protease inhibitors.
# Protein concentrations are determined by the Biorad dye method using recombinant HCV protease standards previously quantified by amino acid analysis. Prior to assay initiation, the enzyme storage buffer (50 mM sodium phosphate pH 8.0, 300 mM NaCl, 10% glycerol, 0.05% lauryl maltoside and 10 mM DTT) is exchanged for the assay buffer (25 mM MOPS pH 6.5, 300 mM NaCl, 10% glycerol, 0.05% lauryl maltoside, 5 μM EDTA and 5 μM DTT) utilizing a Biorad Bio-Spin P-6 prepacked column.
# Spectra of Substrates and Products: Spectra of substrates and the corresponding chromophore products are obtained in the pH 6.5 assay buffer. Extinction coefficients are determined at the optimal off-peak wavelength in 1-cm cuvettes (340 nm for 3-Np and HMC, 370 nm for PAP and 400 nm for 4-Np) using multiple dilutions. The optimal off-peak wavelength is defined as that wavelength yielding the maximum fractional difference in absorbance between substrate and product (product OD−substrate OD)/substrate OD).
# Protease Assay: HCV protease assays are performed at 30° C. using a 200 μl reaction mix in a 96-well microtiter plate. Assay buffer conditions (25 mM MOPS pH 6.5, 300 mM NaCl, 10% glycerol, 0.05% lauryl maltoside, 5 μM EDTA and 5 μM DTT) are optimized for the NS3/NS4A heterodimer (D. L. Sali et al, ibid.)). Typically, 150 μl mixtures of buffer, substrate and inhibitor are placed in wells (final concentration of DMSO≦4% v/v) and allowed to preincubate at 30° C. for approximately 3 minutes. Fifty μls of prewarmed protease (12 nM, 30° C.) in assay buffer, is then used to initiate the reaction (final volume 200 μl).The plates are monitored over the length of the assay (60 minutes) for change in absorbance at the appropriate wavelength (340 nm for 3-Np and HMC, 370 nm for PAP, and 400 nm for 4-Np) using a Spectromax Plus microtiter plate reader equipped with a monochrometer (acceptable results can be obtained with plate readers that utilize cutoff filters). Proteolytic cleavage of the ester linkage between the Nva and the chromophore is monitored at the appropriate wavelength against a no enzyme blank as a control for non-enzymatic hydrolysis. The evaluation of substrate kinetic parameters is performed over a 30-fold substrate concentration range (˜6-200 μM). Initial velocities are determined using linear regression and kinetic constants are obtained by fitting the data to the Michaelis-Menten equation using non-linear regression analysis (Mac Curve Fit 1.1, K. Raner). Turnover numbers (kcat) are calculated assuming the enzyme is fully active.
row,SMILES,Ki [nM]
1,CN(C)c1c(N(C)C[C@@H](NC(=O)N[C@H](C(=O)N2C[C@H]3[C@@H]([C@H]2C(=O)NC(CC2CC2)C(=O)C(N)=O)C3(C)C)C(C)(C)C)C2CCCCC2)c(=O)c1=O (stereo partly drawn) [compound 100],≤ 75
2,C#CCCC(NC(=O)[C@@H]1[C@@H]2[C@H](CN1C(=O)[C@@H](NC(=O)N[C@H](CN(C)c1c(C3CC3)c(=O)c1=O)C(C)(C)C)C1CCCCC1)C2(C)C)C(=O)C(=O)NCC=C (stereo partly drawn) [compound 101],≤ 75
3,C#CCCC(NC(=O)[C@@H]1[C@@H]2[C@H](CN1C(=O)[C@@H](NC(=O)N[C@H](CN(C)c1c(C(C)(C)C)c(=O)c1=O)C1CCCCC1)C1CCCCC1)C2(C)C)C(=O)C(=O)NCC=C (stereo partly drawn) [compound 102],≤ 75
4,C#CCCC(NC(=O)[C@@H]1[C@@H]2[C@H](CN1C(=O)[C@@H](NC(=O)N[C@H](CN(C)c1c(C(C)(C)C)c(=O)c1=O)C(C)(C)C)C1(C)CCCCC1)C2(C)C)C(=O)C(=O)NC1CC1 (stereo partly drawn) [compound 103],≤ 75
5,C=CCNC(=O)C(=O)C(CCC)NC(=O)[C@@H]1[C@@H]2[C@H](CN1C(=O)[C@@H](NC(=O)N[C@H](CN(C)c1c(C(C)(C)C)c(=O)c1=O)C(C)(C)C)C1CCCCC1)C2(C)C (stereo partly drawn) [compound 104],≤ 75
6,C=CCNC(=O)C(=O)C(CCC)NC(=O)[C@@H]1[C@@H]2[C@H](CN1C(=O)[C@@H](NC(=O)N[C@H](CN(C)c1c(C3CC3)c(=O)c1=O)C(C)(C)C)C1CCCCC1)C2(C)C (stereo partly drawn) [compound 105],≤ 75
7,CN(C)c1c(N(C)C[C@@H](NC(=O)N[C@H](C(=O)N2C[C@H]3[C@@H]([C@H]2C(=O)NC(CC2CC2)C(=O)C(N)=O)C3(C)C)C(C)(C)C)C(C)(C)C)c(=O)c1=O (stereo partly drawn) [compound 106],≤ 75
8,C#CCCC(NC(=O)[C@@H]1[C@@H]2[C@H](CN1C(=O)[C@@H](NC(=O)N[C@H](CN(C)c1c(C(C)(C)C)c(=O)c1=O)C(C)(C)C)C1(C)CCCCC1)C2(C)C)C(=O)C(=O)NCC=C (stereo partly drawn) [compound 107],≤ 75
9,CN(C[C@@H](NC(=O)N[C@H](C(=O)N1C[C@H]2[C@@H]([C@H]1C(=O)NC(CC1CC1)C(=O)C(N)=O)C2(C)C)C(C)(C)C)C(C)(C)C)c1c(N(C)c2ccccc2)c(=O)c1=O (stereo partly drawn) [compound 108],≤ 75
10,CC(C)(C)c1c(NC[C@@H](NC(=O)N[C@H](C(=O)N2C[C@H]3[C@@H]([C@H]2C(=O)NC(CC2CCC2)C(=O)C(N)=O)C3(C)C)C(C)(C)C)C(C)(C)C)c(=O)c1=O (stereo partly drawn) [compound 109],≤ 75
11,C=CCNC(=O)C(=O)C(CCCC)NC(=O)[C@@H]1[C@@H]2[C@H](CN1C(=O)[C@@H](NC(=O)N[C@H](CN(C)c1c(N(C)C)c(=O)c1=O)C1CCCCC1)C(C)(C)C)C2(C)C (stereo partly drawn) [compound 110],≤ 75
12,CN(C[C@@H](NC(=O)N[C@H](C(=O)N1C[C@H]2[C@@H]([C@H]1C(=O)NC(CCC(F)(F)F)C(=O)C(=O)NC1CC1)C2(C)C)C1(C)CCCCC1)C(C)(C)C)c1c(C(C)(C)C)c(=O)c1=O (stereo partly drawn) [compound 111],≤ 75
13,CC(C)(C)c1c(NC[C@@H](NC(=O)N[C@H](C(=O)N2C[C@H]3[C@@H]([C@H]2C(=O)NC(CC2CC2)C(=O)C(N)=O)C3(C)C)C(C)(C)C)C(C)(C)C)c(=O)c1=O (stereo partly drawn) [compound 112],≤ 75
14,C=CCNC(=O)C(=O)C(CCC)NC(=O)[C@@H]1[C@@H]2[C@H](CN1C(=O)[C@@H](NC(=O)N[C@H](CN(C)c1c(N(C)C)c(=O)c1=O)C1CCCCC1)C1CCCCC1)C2(C)C (stereo partly drawn) [compound 113],≤ 75
15,C=CCNC(=O)C(=O)C(CC1CC1)NC(=O)[C@@H]1[C@@H]2[C@H](CN1C(=O)[C@@H](NC(=O)N[C@H](CN(C)c1c(C(C)(C)C)c(=O)c1=O)C(C)(C)C)C1(C)CCCCC1)C2(C)C (stereo partly drawn) [compound 114],≤ 75
16,CN(C)c1c(N(C)C[C@@H](NC(=O)N[C@H](C(=O)N2C[C@H]3[C@@H]([C@H]2C(=O)NC(CC2CCC2)C(=O)C(N)=O)C3(C)C)C(C)(C)C)C(C)(C)C)c(=O)c1=O (stereo partly drawn) [compound 115],≤ 75
17,C=CCNC(=O)C(=O)C(CCC)NC(=O)[C@@H]1[C@@H]2[C@H](CN1C(=O)[C@@H](NC(=O)N[C@H](CN(C)c1c(C(C)C)c(=O)c1=O)C(C)(C)C)C1CCCCC1)C2(C)C (stereo partly drawn) [compound 116],≤ 75

row,SMILES,Ki [nM]
1,C=CCNC(=O)C(=O)C(CCC)NC(=O)[C@@H]1[C@@H]2[C@H](CN1C(=O)[C@@H](NC(=O)N[C@H](CN(C)c1c(C(C)(C)C)c(=O)c1=O)C(C)(C)C)C1(C)CCCCC1)C2(C)C (stereo partly drawn) [compound 117],≤ 75
2,CC(C)(C)[C@H](NC(=O)N[C@H](CNc1c(C2CC2)c(=O)c1=O)C(C)(C)C)C(=O)N1C[C@H]2[C@@H]([C@H]1C(=O)NC(CC1CC1)C(=O)C(N)=O)C2(C)C (stereo partly drawn) [compound 118],≤ 75
3,CN(C[C@@H](NC(=O)N[C@H](C(=O)N1C[C@H]2[C@@H]([C@H]1C(=O)NC(CC1CC1)C(=O)C(N)=O)C2(C)C)C(C)(C)C)C(C)(C)C)c1c(C(C)(C)C)c(=O)c1=O (stereo partly drawn) [compound 119],≤ 75
4,CN(C[C@@H](NC(=O)N[C@H](C(=O)N1C[C@H]2[C@@H]([C@H]1C(=O)NC(CC1CC1)C(=O)C(N)=O)C2(C)C)C(C)(C)C)C(C)(C)C)c1c(C2CC2)c(=O)c1=O (stereo partly drawn) [compound 120],≤ 75
5,C#CCCC(NC(=O)[C@@H]1[C@@H]2[C@H](CN1C(=O)[C@@H](NC(=O)N[C@H](CN(C)c1c(N(C)C)c(=O)c1=O)C(C)(C)C)C(C)(C)C)C2(C)C)C(=O)C(=O)NCC=C (stereo partly drawn) [compound 121],≤ 75
6,C#CCCC(NC(=O)[C@@H]1[C@@H]2[C@H](CN1C(=O)[C@@H](NC(=O)N[C@H](CN(C)c1c(C3CC3)c(=O)c1=O)C(C)(C)C)C(C)(C)C)C2(C)C)C(=O)C(=O)NCC=C (stereo partly drawn) [compound 122],≤ 75
7,C=CCNC(=O)C(=O)C(CCC(F)(F)F)NC(=O)[C@@H]1[C@@H]2[C@H](CN1C(=O)[C@@H](NC(=O)N[C@H](CN(C)c1c(C(C)(C)C)c(=O)c1=O)C(C)(C)C)C1(C)CCCCC1)C2(C)C (stereo partly drawn) [compound 123],≤ 75
8,CC(C)(C)[C@H](NC(=O)N[C@H](CNc1c(C2CC2)c(=O)c1=O)C(C)(C)C)C(=O)N1C[C@H]2[C@@H]([C@H]1C(=O)NC(CC1CCC1)C(=O)C(N)=O)C2(C)C (stereo partly drawn) [compound 124],≤ 75
9,C=CCNC(=O)C(=O)C(CCC)NC(=O)[C@@H]1[C@@H]2[C@H](CN1C(=O)[C@@H](NC(=O)N[C@H](CN(C)c1c(C3CC3)c(=O)c1=O)C(C)(C)C)C(C)(C)C)C2(C)C (stereo partly drawn) [compound 125],≤ 75
10,CN(C)c1c(NC[C@@H](NC(=O)N[C@H](C(=O)N2C[C@H]3[C@@H]([C@H]2C(=O)NC(CC2CC2)C(=O)C(N)=O)C3(C)C)C(C)(C)C)C(C)(C)C)c(=O)c1=O (stereo partly drawn) [compound 126],≤ 75
11,C#CCCC(NC(=O)[C@@H]1[C@@H]2[C@H](CN1C(=O)[C@@H](NC(=O)N[C@H](CNc1c(N(C)C)c(=O)c1=O)C(C)(C)C)C(C)(C)C)C2(C)C)C(=O)C(=O)NCC=C (stereo partly drawn) [compound 127],≤ 75
12,CCCC(NC(=O)[C@@H]1[C@@H]2[C@H](CN1C(=O)[C@@H](NC(=O)N[C@H](CN(C)c1c(C(C)(C)C)c(=O)c1=O)C(C)(C)C)C1(C)CCCCC1)C2(C)C)C(=O)C(=O)NC1CC1 (stereo partly drawn) [compound 128],≤ 75
13,C=CCNC(=O)C(=O)C(CCC)NC(=O)[C@@H]1[C@@H]2[C@H](CN1C(=O)[C@@H](NC(=O)N[C@H](CN(C)c1c(C)c(=O)c1=O)C(C)(C)C)C(C)(C)C)C2(C)C (stereo partly drawn) [compound 129],≤ 75
14,CC(C)c1c(N(C)C[C@@H](NC(=O)N[C@H](C(=O)N2C[C@H]3[C@@H]([C@H]2C(=O)NC(CC2CC2)C(=O)C(N)=O)C3(C)C)C(C)(C)C)C(C)(C)C)c(=O)c1=O (stereo partly drawn) [compound 130],≤ 75
15,Cc1c(N(C)C[C@@H](NC(=O)N[C@H](C(=O)N2C[C@H]3[C@@H]([C@H]2C(=O)NC(CC2CC2)C(=O)C(N)=O)C3(C)C)C(C)(C)C)C(C)(C)C)c(=O)c1=O (stereo partly drawn) [compound 131],≤ 75
16,CCc1c(N(C)C[C@@H](NC(=O)N[C@H](C(=O)N2C[C@H]3[C@@H]([C@H]2C(=O)NC(CC2CC2)C(=O)C(N)=O)C3(C)C)C(C)(C)C)C(C)(C)C)c(=O)c1=O (stereo partly drawn) [compound 132],≤ 75
